The other results are listed elsewhere or left out. The list includes weakly bound sequences.

The text below walks through data of article PMC4242493.

In this assay the target is MaxL homodimer (UniProt P61244). As to the kind of experiment: universal protein-binding microarray (PBM). The conditions noted are these: PBS-based mixture, 10 nM His-tagged protein dimer, 2% milk, 200 ng/uL BSA, 50 ng/uL salmon testes DNA, 0.02% TX-100; detection with Alexa 488 anti-His …; high values mean tight binding; most listed sequences are background and not binding sites; double strand, one strand shown.
Chain of UniProt P61244 (P61244 whole entry): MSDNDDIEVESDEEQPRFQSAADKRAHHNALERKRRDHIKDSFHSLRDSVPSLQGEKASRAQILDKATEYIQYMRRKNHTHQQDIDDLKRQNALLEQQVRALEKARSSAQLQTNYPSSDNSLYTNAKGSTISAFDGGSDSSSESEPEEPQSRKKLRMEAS
Turning to AGAGTTTG, the binding signal (normalized occupancy) amounted to 0.073.

For the sequence GACTGGCA, the binding signal (normalized occupancy) came out at 0.071.

With TAGACCTA, the binding signal (normalized occupancy) was 0.0731.

With AAGCCATG, the binding signal (normalized occupancy) was determined as 0.0909.

On to ACCAGCAA, for which the binding signal (normalized occupancy) came out at 0.0755.

Turning to CTGCTAGC, the binding signal (normalized occupancy) was 0.0674.

Turning to ATGGTTCG, the binding signal (normalized occupancy) came to 0.0737.

Turning to GGACCCGA, the binding signal (normalized occupancy) stood at 0.0667.

For the sequence GGAGGGTA, the binding signal (normalized occupancy) amounted to 0.0805.

Turning to AACACGTT, the binding signal (normalized occupancy) was 0.128.

In the case of CATATGAG, the binding signal (normalized occupancy) was 0.0887.

For the sequence GCACCAAA, the binding signal (normalized occupancy) was determined as 0.0753.

Regarding CTTGGCTA, the binding signal (normalized occupancy) came out at 0.0706.

Turning to AAGATAAC, the binding signal (normalized occupancy) stood at 0.079.

For AACTATCG, the binding signal (normalized occupancy) is 0.0759.

For the sequence CAACTCTG, the binding signal (normalized occupancy) worked out at 0.0676.

On to CGCGATGA, for which the binding signal (normalized occupancy) was determined as 0.0718.

In the case of CGCAAGAC, the binding signal (normalized occupancy) worked out at 0.0714.

With ATTAGAGA, the binding signal (normalized occupancy) is 0.0726.

Regarding ACTCGCTC, the binding signal (normalized occupancy) came to 0.0679.

With AAAATACG, the binding signal (normalized occupancy) came to 0.0787.

For GACTATGC, the binding signal (normalized occupancy) is 0.083.

As for ACCGTTAA, the binding signal (normalized occupancy) was 0.0779.

For the sequence GTGAAAAC, the binding signal (normalized occupancy) was 0.0723.

On to TCCAGGGA, for which the binding signal (normalized occupancy) turned out to be 0.0713.

As for CGCCAGGA, the binding signal (normalized occupancy) turned out to be 0.0676.

For CACCAGAC, the binding signal (normalized occupancy) stood at 0.0811.

In the case of CTACCTCA, the binding signal (normalized occupancy) was 0.0778.

AAGACCGT: the binding signal (normalized occupancy) was found to be 0.0755.

Turning to TTCTGCAA, the binding signal (normalized occupancy) amounted to 0.0726.

With AGCGACAG, the binding signal (normalized occupancy) came out at 0.0777.

Turning to ATTCTGTA, the binding signal (normalized occupancy) was 0.0764.

Consider CCCCTAGC, for which the binding signal (normalized occupancy) worked out at 0.0728.

Regarding AAACGTAA, the binding signal (normalized occupancy) was 0.0743.

Take CGAGCACG: the binding signal (normalized occupancy) amounted to 0.0846.

With CCTGTGTA, the binding signal (normalized occupancy) is 0.0852.

For CCCGAAAC, the binding signal (normalized occupancy) is 0.0747.

Consider ACCCGATG, for which the binding signal (normalized occupancy) turned out to be 0.0757.

In the case of AGGGATAC, the binding signal (normalized occupancy) turned out to be 0.0755.

Regarding AGATTTGG, the binding signal (normalized occupancy) worked out at 0.0791.

With AGTTCTCG, the binding signal (normalized occupancy) is 0.074.

In the case of CCGTTGCG, the binding signal (normalized occupancy) came out at 0.0657.

TAGCGTGA: the binding signal (normalized occupancy) was 0.0905.

As for GGGTTACA, the binding signal (normalized occupancy) was found to be 0.0762.

With ATGTGCCC, the binding signal (normalized occupancy) came out at 0.0916.

On to CAAGGCGA, for which the binding signal (normalized occupancy) was 0.0744.

TAATGTCA: the binding signal (normalized occupancy) was 0.0894.

GAACGTAC: the binding signal (normalized occupancy) came to 0.0793.

On to CTTTTTTA, for which the binding signal (normalized occupancy) was 0.0743.

For the sequence ACCCGCTG, the binding signal (normalized occupancy) came out at 0.0761.

As for CCGTCGAC, the binding signal (normalized occupancy) is 0.0721.

Consider CATTATCA, for which the binding signal (normalized occupancy) stood at 0.0878.

As to CGTTAGGC, the binding signal (normalized occupancy) is 0.0739.

For GTTGAGAA, the binding signal (normalized occupancy) stood at 0.076.

With GGTAACGA, the binding signal (normalized occupancy) worked out at 0.0778.

With TATTCCAA, the binding signal (normalized occupancy) came out at 0.0748.

As for ATCGTCCG, the binding signal (normalized occupancy) was 0.0709.

Turning to CTGGTTAC, the binding signal (normalized occupancy) stood at 0.0749.

Regarding CACACCTC, the binding signal (normalized occupancy) turned out to be 0.0869.

As for TACGTAAA, the binding signal (normalized occupancy) came to 0.0797.

With AGATAAGG, the binding signal (normalized occupancy) is 0.075.

Consider CCACGTCG, for which the binding signal (normalized occupancy) came out at 0.086.

As for CAGATCTG, the binding signal (normalized occupancy) was 0.0738.

For ACCCGAAT, the binding signal (normalized occupancy) is 0.0777.

On to CCTTTTCA, for which the binding signal (normalized occupancy) amounted to 0.0767.

With TCACGTAA, the binding signal (normalized occupancy) stood at 0.086.

AACAAGCG: the binding signal (normalized occupancy) worked out at 0.0731.

In the case of AAAATTGC, the binding signal (normalized occupancy) was 0.0741.

Turning to CGTTTCAA, the binding signal (normalized occupancy) was 0.0726.

In the case of ATCCAGTG, the binding signal (normalized occupancy) was found to be 0.0764.

For the sequence CCGGTACC, the binding signal (normalized occupancy) is 0.071.

Consider CAAGTGTC, for which the binding signal (normalized occupancy) was determined as 0.0772.

On to AGTAAACA, for which the binding signal (normalized occupancy) was 0.073.

On to CCTCTTAA, for which the binding signal (normalized occupancy) came to 0.0711.

Take TTCACGAA: the binding signal (normalized occupancy) amounted to 0.0703.

As for ACCCCAAA, the binding signal (normalized occupancy) worked out at 0.0761.

Consider CGCTTCCC, for which the binding signal (normalized occupancy) was 0.0822.

On to ATATGCGC, for which the binding signal (normalized occupancy) turned out to be 0.085.

Turning to AGGCAGCG, the binding signal (normalized occupancy) amounted to 0.0692.

Turning to ACATACAA, the binding signal (normalized occupancy) is 0.083.

For CCCTAATA, the binding signal (normalized occupancy) came to 0.0744.

For the sequence AAAGTCCT, the binding signal (normalized occupancy) was determined as 0.0686.

Regarding CGCATCAA, the binding signal (normalized occupancy) worked out at 0.0816.

Take AATCTCCA: the binding signal (normalized occupancy) was determined as 0.0749.

For AAGCAGAA, the binding signal (normalized occupancy) worked out at 0.0742.

On to AATGGCGC, for which the binding signal (normalized occupancy) is 0.0736.

As to AATTCCAG, the binding signal (normalized occupancy) is 0.0737.

Turning to TATGCTAA, the binding signal (normalized occupancy) stood at 0.0798.

Regarding GCCATGAC, the binding signal (normalized occupancy) was determined as 0.0739.

Turning to ATGCGAAA, the binding signal (normalized occupancy) stood at 0.0802.

On to ACGGTCCA, for which the binding signal (normalized occupancy) turned out to be 0.0703.

As to AAGACGTG, the binding signal (normalized occupancy) turned out to be 0.0775.

Regarding CAGTCACC, the binding signal (normalized occupancy) came out at 0.0819.

For AAGGTTCA, the binding signal (normalized occupancy) is 0.0746.

In the case of GGGAAGAC, the binding signal (normalized occupancy) was 0.0749.

For the sequence CACGCCCG, the binding signal (normalized occupancy) was 0.0926.

Turning to AGGTATGG, the binding signal (normalized occupancy) was found to be 0.0844.

In the case of CCTCTGAC, the binding signal (normalized occupancy) was found to be 0.073.

AGTCCCAA: the binding signal (normalized occupancy) was 0.0694.

As to GCGTGTAA, the binding signal (normalized occupancy) worked out at 0.0923.

Regarding GCCACTAA, the binding signal (normalized occupancy) worked out at 0.0699.

As for GAGCACCC, the binding signal (normalized occupancy) is 0.0744.

Take GGTGCCAA: the binding signal (normalized occupancy) amounted to 0.0743.

For the sequence ACGGATCC, the binding signal (normalized occupancy) came out at 0.0712.

AGACCTCA: the binding signal (normalized occupancy) is 0.0749.

Consider ACTTATCT, for which the binding signal (normalized occupancy) was 0.0801.

Turning to GTGGTGCA, the binding signal (normalized occupancy) turned out to be 0.0801.

As for ACTCCACT, the binding signal (normalized occupancy) turned out to be 0.073.

Consider CCGATGAG, for which the binding signal (normalized occupancy) worked out at 0.0731.

Take GCGTTGTA: the binding signal (normalized occupancy) amounted to 0.0819.

GATACCCA: the binding signal (normalized occupancy) amounted to 0.0758.

With ATAGCCCG, the binding signal (normalized occupancy) was determined as 0.0721.

As to CGTTCAAG, the binding signal (normalized occupancy) is 0.0769.

Turning to CGGGGGGA, the binding signal (normalized occupancy) is 0.072.

GCTAAACA: the binding signal (normalized occupancy) was 0.0713.

For the sequence CACGGAGA, the binding signal (normalized occupancy) worked out at 0.0728.

AAGTACGA: the binding signal (normalized occupancy) amounted to 0.0766.

Consider CACCCGAG, for which the binding signal (normalized occupancy) was determined as 0.0705.

On to CACGTGCA, for which the binding signal (normalized occupancy) amounted to 0.588.

As to ACAGACCT, the binding signal (normalized occupancy) came to 0.0767.

Turning to CACTGACG, the binding signal (normalized occupancy) came out at 0.0731.

On to ATCCGCCA, for which the binding signal (normalized occupancy) is 0.0773.

Regarding CCTTAGCA, the binding signal (normalized occupancy) was determined as 0.0726.

Consider TAACACCA, for which the binding signal (normalized occupancy) came out at 0.077.

As to CGTATGAG, the binding signal (normalized occupancy) was found to be 0.0785.

As to GTCGGCGA, the binding signal (normalized occupancy) came out at 0.0718.

Take ACACGCAG: the binding signal (normalized occupancy) came out at 0.0812.

GGTCAGCA: the binding signal (normalized occupancy) was 0.079.

In the case of GTAATGAA, the binding signal (normalized occupancy) turned out to be 0.0803.

On to AGCCTTCA, for which the binding signal (normalized occupancy) stood at 0.0757.

Turning to AATTGGAG, the binding signal (normalized occupancy) came out at 0.0717.

In the case of CCTAAATA, the binding signal (normalized occupancy) worked out at 0.0766.

With AGGCCAAC, the binding signal (normalized occupancy) came to 0.0745.

Take AAGAGCGT: the binding signal (normalized occupancy) was 0.0807.

Turning to CCTGTGCG, the binding signal (normalized occupancy) is 0.0733.

With ATCTGTGA, the binding signal (normalized occupancy) turned out to be 0.0729.

As to GAACTCAC, the binding signal (normalized occupancy) was found to be 0.0737.

Consider CACAAGTC, for which the binding signal (normalized occupancy) turned out to be 0.0787.

On to CCACGAAA, for which the binding signal (normalized occupancy) amounted to 0.0726.

In the case of ATCCTTAA, the binding signal (normalized occupancy) came out at 0.0708.

Regarding CCGCCACC, the binding signal (normalized occupancy) was found to be 0.0762.

Regarding ATTCGGAA, the binding signal (normalized occupancy) came to 0.075.

Consider AGGAAGCC, for which the binding signal (normalized occupancy) came out at 0.0714.

Regarding ATTCTCTC, the binding signal (normalized occupancy) is 0.0771.

As for ACATATTA, the binding signal (normalized occupancy) is 0.0797.

In the case of CGAGTGAA, the binding signal (normalized occupancy) was determined as 0.0696.

With GCTGCGTA, the binding signal (normalized occupancy) came to 0.0737.

As to ATGAGCAT, the binding signal (normalized occupancy) was 0.0887.

In the case of ACCCACGT, the binding signal (normalized occupancy) turned out to be 0.0984.

Take ACAAGAAC: the binding signal (normalized occupancy) is 0.0777.

As to AGAGAAGA, the binding signal (normalized occupancy) is 0.0737.

For the sequence CATATGAA, the binding signal (normalized occupancy) is 0.088.

Turning to CCTAGGAC, the binding signal (normalized occupancy) is 0.0756.

Take ACGATCGA: the binding signal (normalized occupancy) came to 0.0749.

For the sequence GACACGTC, the binding signal (normalized occupancy) turned out to be 0.083.

Turning to AGGCTAGC, the binding signal (normalized occupancy) turned out to be 0.0737.

In the case of ACGCGACA, the binding signal (normalized occupancy) worked out at 0.075.

For CTTAGCCC, the binding signal (normalized occupancy) came out at 0.0688.

For the sequence CGTAAAAA, the binding signal (normalized occupancy) amounted to 0.0732.

For GTAAGGCA, the binding signal (normalized occupancy) is 0.0825.

Consider CAGGCAAC, for which the binding signal (normalized occupancy) was 0.0725.

In the case of CCGGCAAG, the binding signal (normalized occupancy) is 0.0733.

As for CGGACCCC, the binding signal (normalized occupancy) turned out to be 0.0732.

Take AGAGTACT: the binding signal (normalized occupancy) was found to be 0.0714.

Consider ATGTCTGA, for which the binding signal (normalized occupancy) is 0.0806.

As to CAACGTAA, the binding signal (normalized occupancy) is 0.0776.

As for CGGGCCCC, the binding signal (normalized occupancy) turned out to be 0.0686.

On to TGAGTCAA, for which the binding signal (normalized occupancy) turned out to be 0.0767.

In the case of ATATTGAA, the binding signal (normalized occupancy) is 0.0809.

Take CGCAGGCG: the binding signal (normalized occupancy) came out at 0.0716.

With AGCAGGCG, the binding signal (normalized occupancy) came to 0.078.

As to CTCCCAAG, the binding signal (normalized occupancy) was determined as 0.0733.
